This note sets out measurements from the supplement of paper PMC4604168 (melanoma cell lines).

Some of the results follow. Repeats are few or missing, and single values can be far off.

Among the test systems are SkMel28; SkMel2; SkMel30; SkMel5; UACC257; UACC62; WM115; WM1716; WM1745; WM3526.
Holding throughout (assay): cell count relative to DMSO control; melanoma cells; higher = more viable cells
Holding throughout (conditions): library dose: standard library concentration; 72 h
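Also: cells treated in 1,536-well plates, then fixed and DAPI-stained, with nuclei counted from automated high-throughput microscope images.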

`C=C(c1ccc(C(=O)O)cc1)c1cc2c(cc1C)C(C)(C)CCC2(C)C` [Bexarotene] + C[C@]1(c2nc3c(C(N)=O)cccc3[nH]2)CCCN1 [Veliparib] (first compound 10 µM, partner dose 7 µM): the cell count in the assay with SkMel28 was determined as 61.8%; in the assay on SkMel2, 82.6%; in the assay with SkMel30, 88.5%; in the assay on SkMel5, 78.6%; in the assay with UACC257 it was 82.6%; in the assay with UACC62 it was 64.2%. Moreover, the cell count in the assay with WM115 turned out to be 93.9%; in the assay on WM1716 it was 75.1%; in the assay on WM1745, 83.7%; with WM3526, 70.1%.

Regarding `CS(=O)(=O)c1ccc(C(=O)Nc2ccc(Cl)c(-c3ccccn3)c2)c(Cl)c1` [vismodegib] + Clc1ccc(Nc2nnc(Cc3ccncc3)c3ccccc23)cc1 [vatalanib] (first compound 5 µM, partner dose 10 µM), the cell count stood at 65.9% in the assay on SkMel28; 62% in the assay on SkMel2; 75.6% in the assay with SkMel30; 51.5% in the assay with SkMel5; 63% in the assay with UACC257; 79.9% in the assay on UACC62. For the same compound, the cell count in the assay on WM115 was found to be 91.5%; with WM1716, 84.9%; in the assay with WM1745, 47%; with WM3526, 76.2%.

Take `CN(c1ncccc1CNc1nc(Nc2ccc3c(c2)CC(=O)N3)ncc1C(F)(F)F)S(C)(=O)=O` + NC(=O)Nc1cc(-c2cccc(F)c2)sc1C(=O)N[C@H]1CCCNC1 [AZD7762] (first compound 0.4 µM, partner dose 0.1 µM): the cell count in the assay on SkMel28 was found to be 82.8%; in the assay with SkMel2 it was 121%; in the assay with SkMel30, 157%; in the assay with SkMel5, 81.2%; in the assay on UACC257, 89.3%; with UACC62, 75.1%. Also, the cell count with WM115 was found to be 78.8%; with WM1716, 79.3%; in the assay with WM1745, 66%; in the assay with WM3526 it was 91.4%.

For the compound `C=C(c1ccc(C(=O)O)cc1)c1cc2c(cc1C)C(C)(C)CCC2(C)C` [Bexarotene] + COc1cc(Nc2ncc(F)c(Nc3ccc4c(n3)NC(=O)C(C)(C)O4)n2)cc(OC)c1OC [Tamatinib] (first compound 10 µM, partner dose 2 µM), the cell count in the assay with SkMel28 is 60%; in the assay with SkMel2, 67.6%; with SkMel30, 95.5%; in the assay with SkMel5, 44.7%; with UACC257 it was 69%; in the assay on UACC62, 80.3%. For the same compound, the cell count with WM115 was found to be 70.5%; with WM1716, 68.3%; in the assay on WM1745 it was 38.1%; with WM3526, 69.8%.

`CS(=O)(=O)c1ccc(C(=O)Nc2ccc(Cl)c(-c3ccccn3)c2)c(Cl)c1` [vismodegib] + Nc1nc(F)nc2c1ncn2[C@@H]1O[C@H](CO)[C@@H](O)[C@@H]1O [fludarabine] (first compound 5 µM, partner dose 1 µM): the cell count with SkMel28 is 2.76%; in the assay with SkMel2 it was 1.64%; in the assay with SkMel30 it was 21.5%; in the assay on SkMel5, 61%; in the assay with UACC257 it was 37%; in the assay on UACC62, 109%. Besides, the cell count with WM115 worked out at 99.6%; with WM1716, 94.6%; in the assay with WM1745, 117%; with WM3526, 24%.

Consider `CN(c1ncccc1CNc1nc(Nc2ccc3c(c2)CC(=O)N3)ncc1C(F)(F)F)S(C)(=O)=O` + C[C@]1(c2nc3c(C(N)=O)cccc3[nH]2)CCCN1 [Veliparib] (first compound 0.4 µM, partner dose 7 µM), for which the cell count in the assay with SkMel28 was 60.7%; with SkMel2 it was 77.5%; in the assay with SkMel30, 84.3%; with SkMel5, 64.1%; in the assay with UACC257, 82.4%; with UACC62, 57.9%. For the same compound, the cell count in the assay on WM115 turned out to be 59.3%; with WM1716, 87.2%; in the assay with WM1745, 62.3%; in the assay on WM3526, 88.6%.

With `CCCS(=O)(=O)Nc1ccc(F)c(C(=O)c2c[nH]c3ncc(Cl)cc23)c1F` + Cc1ccc(NC(=O)c2cccc(N(C)C)c2)cc1NC(=O)c1ccc(O)cc1 [ZM336372] (first compound 0.4 µM, partner dose 10 µM), the cell count was found to be 61.5% in the assay on SkMel28; 134% in the assay on SkMel2; 89.2% in the assay with SkMel30; 84.7% in the assay with SkMel5; 89.5% in the assay on UACC257; 76.7% with UACC62. Also, the cell count amounted to 83.9% with WM115, 104% with WM1716, 73.1% in the assay with WM1745 and 65.6% with WM3526.

For `CS(=O)(=O)c1ccc(C(=O)Nc2ccc(Cl)c(-c3ccccn3)c2)c(Cl)c1` [vismodegib] + NC1(c2ccc(-c3nc4ccn5c(=O)[nH]nc5c4cc3-c3ccccc3)cc2)CCC1 [MK2206] (first compound 5 µM, partner dose 2 µM), the cell count came out at 75.2% with SkMel28; 71.4% with SkMel2; 90.9% in the assay with SkMel30; 81.1% in the assay on SkMel5; 93.6% in the assay with UACC257; 53.5% in the assay with UACC62. The cell count in the assay with WM115 turned out to be 62%; in the assay on WM1716 it was 91.5%; in the assay on WM1745, 105%; in the assay on WM3526, 71.6%.

For the compound `CS(=O)(=O)c1ccc(C(=O)Nc2ccc(Cl)c(-c3ccccn3)c2)c(Cl)c1` [vismodegib] + OCCn1cc(-c2cnc3nnn(Cc4ccc5ncccc5c4)c3n2)cn1 [PF04217903] (first compound 5 µM, partner dose 5 µM), the cell count in the assay with SkMel28 worked out at 88.4%; in the assay on SkMel2, 83.9%; in the assay on SkMel30 it was 108%; with SkMel5, 82.3%; in the assay with UACC257 it was 105%; with UACC62, 91.4%. Also, the cell count in the assay with WM115 was determined as 101%; in the assay on WM1716 it was 86.5%; in the assay with WM1745 it was 94.8%; in the assay with WM3526, 76.3%.

Regarding `NC1(c2ccc(-c3nc4ccn5c(=O)[nH]nc5c4cc3-c3ccccc3)cc2)CCC1` + Cn1cncc1[C@@](N)(c1ccc(Cl)cc1)c1ccc2c(c1)c(-c1cccc(Cl)c1)cc(=O)n2C [tipifarnib] (first compound 2 µM, partner dose 0.05 µM), the cell count in the assay with SkMel28 is 38.2%; in the assay with SkMel2, 59.6%; with SkMel30, 95.6%; in the assay on SkMel5, 47.2%; in the assay on UACC257, 107%; in the assay on UACC62 it was 72.3%. Further, the cell count was found to be 58.3% with WM115, 64.7% in the assay on WM1716, 83.8% in the assay with WM1745 and 63.5% in the assay on WM3526.

For the compound `C=C(c1ccc(C(=O)O)cc1)c1cc2c(cc1C)C(C)(C)CCC2(C)C` [Bexarotene] + COc1cc2c(Oc3ccc4[nH]c(C)cc4c3F)ncnc2cc1OCCCN1CCCC1 [cediranib] (first compound 10 µM, partner dose 2 µM), the cell count in the assay with SkMel28 was 81.8%; in the assay on SkMel2, 85%; with SkMel30, 110%; in the assay on SkMel5, 101%; with UACC257, 81.5%; in the assay with UACC62 it was 87.8%. In addition, the cell count turned out to be 83.8% with WM115, 76.8% in the assay with WM1716, 85.2% in the assay on WM1745 and 97% in the assay on WM3526.
